# Test results taken from PubChem BioAssay AID651820 (National Center for Advancing Translational Sciences (NCATS), 2012).
# About 12,000 (3.5%) of roughly 340,000 compounds were called active. Inconclusive results, whose numbers are uncertain, are shown with a selection of clear calls. Calls follow the shape of the dose curve; as a rule, active = well fitted inhibition curve with a large enough effect; inconclusive = small, poorly fitted or top-dose-only effect, or another doubt; inactive = no such curve, though single readings can be large or run the other way. No potency is given beside an inconclusive call; the fits are too rough.
# Experiment: qHTS Assay for Inhibitors of Hepatitis C Virus (HCV)
# Conditions: Huh7.5.1 HCVcc-Cre (HCVcc is cell-culture hepatitis C virus) infection, luciferase reporter, 44 h; series mostly up to 41.8 µM
# Outline: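 Infectious HCV cell culture screen: compound-treated cells (1,000/well, pre-plated 4 h) are infected with HCVcc-Cre at roughly 0.5 moi and grown 44 h. Infection is quantified by luciferase signal after 15 min substrate incubation at room temperature.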
# Potency is read from the fitted curve at half-maximal effect; tags tell the direction and shape of the fitted curve.
row,SMILES,Potency
1,CC(=O)c1c(C)[nH]c(C(=O)OCC(=O)c2ccc(C)s2)c1C,"inconclusive [inhibitor, partial curve]"
2,Cc1nn(-c2ccccc2)c2nc(N)c(C#N)c(-c3ccc(F)cc3)c12,"inconclusive [inhibitor, single point]"
3,Cc1ccccc1OCc1nc2ccccc2[nH]1,"inconclusive [inhibitor, single point]"
4,CCn1c(O)c(N=Nc2ccc3ccccc3n2)c2ccccc21,"inconclusive [inhibitor, single point]"
5,CCCOc1ccc(C2C(C(=O)c3ccc(C)o3)=C(O)C(=O)N2Cc2ccco2)cc1OCC (stereo not drawn),"inconclusive [inhibitor, single point]"
6,CC(=O)Nc1ccc(-c2c(C)cc3oc(=O)cc(-c4ccccc4)c3c2C)cc1,"inconclusive [inhibitor, partial curve]"
7,O=C(Nc1ccccc1)Nc1nc(-c2ccccc2)cs1,inactive
8,COc1cc(OC)cc(C(=O)NC(C(=O)Nc2ccc3nc(C)sc3c2)C(C)C)c1 (stereo not drawn),"inconclusive [inhibitor, single point]"
9,COc1ccc(S(=O)(=O)N2Cc3ccccc3CC2C(=O)Nc2ccc3c(c2)OCO3)cc1 (stereo not drawn),"inconclusive [inhibitor, partial curve]"
10,CCOc1cc(CNCCO)cc(Br)c1OCc1ccc(Cl)cc1Cl,"inconclusive [inhibitor, full curve]"
11,Cc1cccc(-n2ncc3c2CCCC3NC(=O)CCN2CCCCO2)c1C (stereo not drawn),"inconclusive [inhibitor, single point]"
12,N#CC(C#N)=C1c2cc(S(=O)(=O)NCCO)ccc2-c2ccc(S(=O)(=O)NCCO)cc21,inactive
13,CCOC(=O)C1(CCOc2ccccc2)CCN(Cc2ccc(OCC)c(CO)c2)CC1,active: 14.1 µM
14,CC(C)Cc1nc2sc3c(NCc4ccco4)ncnc3c2c2c1COC(C)(C)C2,"inconclusive [inhibitor, full curve, poor fit]"
15,CCC(C)c1ccc(O)c(NC(=O)c2ncn[nH]2)c1 (stereo not drawn),"inconclusive [inhibitor, single point]"
16,COc1ccc(/C(C)=N/NC(=O)c2nc(C)cc(C)n2)cc1,inactive
17,O=[N+]([O-])c1cc(/C=N/N2CCOCC2)cs1,"inconclusive [inhibitor, single point]"
18,CCOc1cccc2cc(C(C)=O)oc12,"inconclusive [inhibitor, single point]"
19,O=C(OCCN1CCOCC1)C1(c2ccccc2)CCCCC1,"inconclusive [inhibitor, full curve]"
20,C=CCSc1nc2ccccc2n2cnnc12,"inconclusive [inhibitor, single point]"
21,O=C(Cc1ccc(F)cc1)OCn1nnc2ccccc2c1=O,"inconclusive [inhibitor, single point]"
22,Cc1ccc(S(=O)(=O)N(C)C)cc1NC(=O)COc1ccccc1C(=O)Nc1ccccc1,"inconclusive [inhibitor, single point]"

row,SMILES,Potency
1,CC(NC(=O)c1ccco1)c1ccc(-n2ccnc2)cc1 (stereo not drawn),inactive
2,O=[N+]([O-])c1cccc(N(CC(O)CN2CCCC2)S(=O)(=O)c2ccccc2)c1 (stereo not drawn),inactive
3,O=S(=O)(c1ccc(Cl)cc1)c1nc(-c2ccccc2F)oc1NCCCN1CCOCC1,"inconclusive [inhibitor, single point]"
4,COc1ccc(NC(=O)c2ccc(COCC(F)(F)C(F)F)cc2)cc1OC,"inconclusive [inhibitor, partial curve]"
5,COc1ccc(C(C)=O)cc1COc1nc(C)nc2ccccc12,"inconclusive [inhibitor, single point]"
6,O=C(NCCc1c[nH]c2ccccc12)C1CCN(c2nnc(N3CCCC3=O)s2)CC1,"inconclusive [inhibitor, single point]"
7,O=C(N/N=C/c1cc(Br)c(O)c(Br)c1O)c1cccnc1,"inconclusive [inhibitor, single point]"
8,CCc1ccccc1NC(=O)CNC(=O)CNC(=O)Cc1ccccc1,inactive
9,CN(C)Cc1c(O)ccc2occ(C(=O)c3ccc(F)cc3)c12,inactive
10,Cc1cc([N+](=O)[O-])ccc1NCc1cccc2ccccc12,"inconclusive [inhibitor, partial curve]"
11,C=CCn1c(O)c(N=NC(=S)Nc2ccccc2F)c2cc(S(=O)(=O)N3CCOCC3)ccc21,"inconclusive [inhibitor, partial curve]"
12,CC(=O)Nc1ccc2c(c1)-c1ccc(F)cc1C2,"inconclusive [inhibitor, partial curve]"
13,Cc1ccc2c(c1)c1ncnc(N3CCOCC3)c1n2C,"inconclusive [inhibitor, single point]"
14,Cc1cccn2c(=O)c3cc(C(=O)NCCCN4CCCC4=O)n(C)c3nc12,"inconclusive [inhibitor, full curve, poor fit]"
15,COc1cc(/C=N/OCC(=O)Nc2cc(C)cc(C)c2)ccc1OCc1ccc(Cl)cc1,"inconclusive [inhibitor, single point]"
16,COc1cccc(N2CCN(S(=O)(=O)c3ccc(-c4coc(C)n4)cc3)CC2)c1,"inconclusive [inhibitor, single point]"
17,CCOc1cc(/C=N/N=C(N)N)ccc1OCc1ccc(Cl)cc1,"inconclusive [inhibitor, single point]"
18,Cc1nn(C(C)C(=O)NCCN2CCCCCC2)c(=O)c2nn(-c3ccccc3)c(C)c12 (stereo not drawn),inactive
19,CC1CN(C(=O)Cc2ccc(-c3ccccc3)cc2)CC(C)O1 (stereo not drawn),"inconclusive [inhibitor, single point]"
20,Nc1nonc1-n1nncc1-c1ccccc1,"inconclusive [inhibitor, single point]"
21,CC(C)CC(=O)Nc1ccc(N2CCOCC2)cc1,inactive
